# ± gives the standard deviation. This is a selection; strong and weak results do not stand in their true shares.
# Test system: MIWI (PIWIL1) piRISC loaded with L1MC piRNA (30 nt)
# Assay: pre-steady-state target cleavage rate (min^-1); MIWI and MILI are mouse PIWI proteins and EfPiwi is from a freshwater sponge; tags in brackets are library labels; higher = faster piRNA-guided slicing of the target
# Conditions: guide: L1MC piRNA 5'p-UAACUAAAUACUAUGCAAGCUGUAGGUCCU; auxiliary factor: 500 nM mouse GTSF1
# In short: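 A transcribed, DNA-blocked target RNA library […] was incubated at 33 °C for 0–8 or 0–960 min with 1 nM active affinity-purified piRISC carrying one synthetic guide, in HEPES–potassium acetate buffer with or without 500 nM GTSF1 partner protein. Uncleaved targets were then sequenced and normalised to depth and to weakly complementary targets. Data from three trials were pooled, with k3 capped at 0.0001 min^-1, and a burst-and-steady-state fit yielded the pre-steady-state cleavage rate.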
# 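Further: 1 nM active piRISC with 0.1 nM target library at 33 °C single turnover.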
row,Sequence,pre-steady-state target cleavage rate
1,UUGACCUACAGCUUGCAUAGUAUUUAGUUA,1.16 ± 0.061
2,UCCUGGAACAGCUUGGAUAGUAUUAAGUUA,0.43 ± 0.068
3,UGGACCUACAGCUUGCAUAGUAUUAUAGUUA,1.24 ± 0.062
4,UGCACCUACACCUUGCAUAGUAUUUAGUUA,0.967 ± 0.059
5,AGGACCUACAGCUUGGAUAGUAUUAAGUUA,0.722 ± 0.072
6,UCCUGGUACUGCUUGCAUAGUAUUUUGUUA,0.153 ± 0.034
7,UCCUGGAACAGCUUGCAUAGUCUUUAGUUA,0.671 ± 0.033
8,UCCUCCUACAGCUUGCAUUGUUUUUAGUUA,0.0961 ± 0.01
9,UCCUCCUACAGCUUGCAUAGAAUAUAGUUA,0.289 ± 0.029
10,UCCACCUUCAGCUUGCUUAGUAUUUAGUUA,1.16 ± 0.037
11,UCCUGCUACAGCUUGCAUAGAAUUUUGUUA,0.27 ± 0.039
12,UCCACCAACAGCUUGCAUUGUAUUUAGUUA,1.01 ± 0.034
13,UCCUGGAUGUGGUUGCAUAGUAUUUACUUA,0.0113 ± 0.011
14,UCCUGGAUGAGCUUGCAUAGUAUUGAGUUA,0.426 ± 0.048
15,AGGACCUACAGGUUGGAUAGUAUUUAGUUA,1.24 ± 0.079
16,UGGACCUACAGCUUGCAUACUAUAUAGUUA,0.153 ± 0.013
17,UCCUGCUACAGCUUGCAUAGUAUUUAGGUA,0.26 ± 0.041
18,UCCUCCUACAGCUAGCAUAGUAUUUAGAUA,0.339 ± 0.042
19,UCCUCCUACAGCUUGCCUAGUAUUUAGUUA,0.966 ± 0.066
20,AGGUCCUACAGCUUGGAUAGUAUUUAGUUA,1.39 ± 0.072

row,Sequence,pre-steady-state target cleavage rate
1,UCCACCUACAGCUUGCAAAGUAUUUACAAA,0.225 ± 0.037
2,UCCUGGAUCAGCUUGCAUUCUAUUUAGUUA,0.052 ± 0.0078
3,UCCUGCUACAGCUUGCAUAGUAUUUAGAUUA,0.237 ± 0.035
4,UCCUGGUACAGCUUGCAUAGUAUUAAGAUA,0.153 ± 0.037
5,UCCUGGAACUGCUUGCAUAGUAUAUAGUUA,0.248 ± 0.027
6,UCCUGGAACAGCUUGCAUAGUUUUUAGUUA,0.333 ± 0.021
7,UCCUGGUACACCUUGCAUAGUAUUUACUUA,0.195 ± 0.063
8,AGGACCUACAGCUUCCAUAGUAUUUAGUUA,0.322 ± 0.066
9,UCCUGGAUGUGCUUGCAUAGUAUUUAAUUA,0.114 ± 0.024
10,UCCUGGAUGACCUUGCAUAGUAAUUAGUUA,0.0312 ± 0.0094
11,UCCUGGUACAGCUCUGCAUAGUAUUUAGUUA,0.921 ± 0.051
12,UCCACCUACAGCUUGGUUAGUAUUUAGUAA,0.537 ± 0.045
13,UCCUGGAUGUGCUUGCAUAGUAUUUAGAUUA,0.178 ± 0.032
14,UCGACCUACAGCUUGCAUAGUAUUUCAGUUA,0.698 ± 0.072
15,UGGACCUACAGCAAGCAUAGUAUUUAGUAA,0.898 ± 0.11
16,UCCUGGAUGAGCAUGCAUAGUAUUAAGUUA,0.203 ± 0.024
17,UCCUGCUACACUUGCAUAGUAUUUAGUUA,0.81 ± 0.034
18,UCCUGGUACAGCUUGCAUACUAUUUUGUUA,0.107 ± 0.026
19,UCCUCGAUCAGCUUGCAUAGUAUUUUCAAA,0.307 ± 0.038
20,UCGACCUACAGCUUGCAUAGUUUUUAGUAA,0.318 ± 0.025
